# Values joined by “and” are separate entries in the source; they are usually repeats but may differ in a detail not shown here. Identical values can stand only once. The whole screen tested about 360,000 compounds, of which about 7,500 (2.1%) were called active. Inconclusive results, whose numbers are uncertain, are shown with a selection of clear calls. The call rests on the fitted dose curve; in most records, active means well fitted cell-killing curve with a large enough effect; inconclusive means small, poorly fitted or top-dose-only effect, or effect the other way, or another doubt; inactive means no such curve, though single readings can be large or run the other way. Potencies of inconclusive entries are left out as doubtful fits.
# Test: qHTS for induction of synthetic lethality in tumor cells producing 2HG: qHTS for the HT-1080-IDH1KD cell line;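 on activity, negative = toxicity: 0% = DMSO wells and -100% = cell-free medium wells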
# Settings: HT-1080 IDH1 knockdown viability, ATP luminescence, 48 h; activity, negative = toxicity: at 46.1 µM (top of the series) unless noted
# Procedure, shortened: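 Knockdown cells (IDH1KD HT-1080) received compounds 2 h after plating at 750 cells/well and were kept 48 h at 37 °C in 5% FBS RPMI. A CellTiter-Glo luminescence read gave % activity for curve fitting.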
# Potency means the concentration at half of the fitted maximal effect; tags describe the fitted curve by direction and shape.
Compound,Potency,"activity, negative = toxicity"
CCCCC1(Cc2ccc([N+](=O)[O-])cc2)C(=O)N(c2ccccc2)N(c2ccccc2)C1=O,"inconclusive [cytotoxic, single point]",
CC(=O)c1ccc(N2CCN(C(=O)/C=C/c3ccc4ccccc4n3)CC2)cc1,,inactive: 2.19%
CCc1ccc(Nc2cc(C(=O)NCCCN3CCOCC3)c3ccccc3n2)cc1,"inconclusive [cytotoxic, partial curve]",
Cc1cc(N2C(=O)C(O)=C(C(=O)c3ccc(C)o3)C2c2cccc(Cl)c2)no1 (stereo not drawn),"inconclusive [cytotoxic, single point]",
CCN=C1NN=C(c2ccc(C)cc2)CS1,"inconclusive [cytotoxic, single point]",
COc1cccc(N2CCN(CC(=O)Nc3nnc(-c4ccccc4)s3)CC2)c1,"inconclusive [cytotoxic, single point]",
COC(=O)C1=C(C)NC(=O)NC1c1ccc(-c2ccc(F)cc2)o1 (stereo not drawn),"inconclusive [cytotoxic, single point]",
Cc1noc(/C=C/N(C)C)c1S(=O)(=O)N1CCCC(C(=O)NCc2ccccc2Cl)C1 (stereo not drawn),"inconclusive [cytotoxic, partial curve, poor fit]",
Cc1nn(-c2cccc(Cl)c2)c(Cl)c1/C=N/NC(=O)c1cccs1,,inconclusive: -18.7% [cytotoxic]
OC(c1cc(-c2ccc(C(F)(F)F)cc2)nc(C(F)(F)F)c1)C1CCCCN1 (stereo not drawn),"inconclusive [cytotoxic, single point]",
CCn1c(SCC(=O)N2CCc3ccccc32)nc2c(c1=O)SC(C)C2 (stereo not drawn),,inactive: -3.95%
COc1cccc(-n2cc(CNCc3cn(C)nc3-c3ccccc3F)cn2)c1,"inconclusive [cytotoxic, single point]",
CCCc1ccc(C(=O)NNc2cccc(C)c2)cc1,"inconclusive [cytotoxic, partial curve]",
CC(C)(C)c1cnnn1-c1ccc(C=O)cc1,"inconclusive [cytotoxic, single point]",
CCOc1cccc(/C=N/NC(=S)Nc2cc(S(=O)(=O)N3CCOCC3)ccc2N2CCOCC2)c1O,"inconclusive [cytotoxic, full curve, poor fit]",
Cc1ccc(-c2nc(NC(=O)CSc3nnnn3-c3ccccc3)ns2)cc1,,inactive: 2.51%
CCCS(=O)(=O)NC(=O)C1(C)CCN1C(=O)Cc1ccc(Cl)cc1Cl (stereo not drawn),"inconclusive [rising, partial curve, poor fit]",
Cc1ccnc(NS(=O)(=O)c2ccc(NC(=O)c3ccc4c(c3)OCCO4)cc2)n1,,inactive: -4.66%
COc1cc(-c2cc(=O)c3c(O)c(OC)c(OC)cc3o2)cc(OC)c1O,"inconclusive [cytotoxic, single point]",
C/C(=N\NC(=O)c1ccoc1C)c1ccccc1O,active: 13 µM,
C=CCn1c(C(CCC(C)C)CC(C)(C)O)n[nH]c1=S (stereo not drawn),"inconclusive [cytotoxic, single point]",
C[C@@H](C(=O)NCc1ccco1)N1C(=O)N2CCc3c([nH]c4ccccc34)[C@@]2(C)C1=O,,inactive: -9.72%
COc1ccc(N(CC(=O)Nc2cc(C)ccc2OC)S(=O)(=O)c2c(C)noc2C)cc1,"inconclusive [cytotoxic, single point]",
CCC1CCc2sc(C(=O)NCC(c3ccccc3OC)N3CCCC3)cc2C1 (stereo not drawn),"inconclusive [cytotoxic, single point]",
C[c-]1[c-](C)[c-](C)[c-](C)[c-]1C.[Fe].c1cc2nccc(N3CCCC3)[c-]2c1 (stereo not drawn),inactive,

Compound,Potency,"activity, negative = toxicity"
Cc1ccc(C(=O)Nc2ccccc2[N+](=O)[O-])cc1S(=O)(=O)N1CCOCC1,"inconclusive [cytotoxic, partial curve]",
O=C(COCc1cc(-c2ccc3c(c2)OCO3)on1)N1CCN(c2cccc(C(F)(F)F)c2)CC1,"inconclusive [cytotoxic, partial curve]",
Cc1ccccc1CC1(CO)CCCN(Cc2c(C)nn(C)c2Cl)C1 (stereo not drawn),,inactive: -19.4%
CCOC(=O)C1(CCCc2ccccc2)CCN(Cc2nccn2CC)CC1,"inconclusive [cytotoxic, single point]",
CCC1SC(C)C/C(=N/NC(N)=O)C1C (stereo not drawn),,inactive: 2.13%
C=CC[n+]1c(-c2ccc(OC)cc2)csc1NNC(=O)Nc1ccccc1,"inconclusive [cytotoxic, single point]",
O=[N+]([O-])c1ccc(NN=Cc2ccc(O)cc2O)nc1,active: 3.26 µM,
CC[C@H](C)C(=O)O[C@H]1C[C@@H](C)C=C2C=C[C@H](C)[C@H](CC[C@@H]3C[C@@H](O)CC(=O)O3)[C@H]21,active: 5.8 µM and active: 20.6 µM,
C/C(CC(=O)Nc1ccc(OCc2ccccc2)cc1)=N\NC(=O)C(=O)Nc1cccc(C)c1,,inactive: -15.3%
Cc1ccc2nc(CSc3nnc(Nc4ccccc4F)s3)cc(=O)n2c1,,inactive: -26%
COc1ccccc1CNC(=O)COC(=O)c1ccc(-n2cnnn2)cc1,,inactive: -1.71%
COc1ccc(-c2cn[nH]c2-c2ccc(OCc3ccccc3F)cc2O)cc1OC,active: 18.4 µM,
Cc1cccc(Cn2nnc3c2C(=O)c2ccccc2C3=O)c1,"inconclusive [cytotoxic, single point]",
COC(=O)c1nc(N)sc1-c1ccc(OC)cc1,,inactive: -1.29%
N#Cc1c(NC(=O)c2ccccc2)sc2c1CCC2,"inconclusive [cytotoxic, full curve]",
CCN1CCCC1CN(Cc1cc2cc(C)cc(C)c2[nH]c1=O)C(=O)Nc1ccccc1OC (stereo not drawn),"inconclusive [cytotoxic, single point]",
O=C(C=Cc1cccnc1)c1ccccc1,active: 18.4 µM,
Cc1ccc(S(=O)(=O)N(C)c2ccc(C(=O)N3CCN(Cc4ccc5c(c4)OCO5)CC3)cc2)cc1,,inconclusive: -30.4% [cytotoxic]
CN1CCOC(=O)/C1=N/Nc1cc(Cl)ccc1Cl,active: 20.6 µM,
COc1cc(Cc2cc(OC)c(O)c(OC)c2)cc(OC)c1O,"inconclusive [cytotoxic, single point]",
Cc1c(/C=N/NC(=O)C2(O)c3ccccc3-c3ccccc32)cnn1C,,inactive: 16.8%
O=C(Nc1ccnn1C1CCN(C2CCCC2)CC1)c1ccccc1,,inactive: 14.9%
CN(C)CCCN(C(=O)c1ccc(S(=O)(=O)N2CCc3ccccc32)cc1)c1nc2c(Cl)cccc2s1,"inconclusive [cytotoxic, single point]",
CCc1ccc2c(c1)NC(=O)C2(C)Cc1ccc(OC(F)(F)F)cc1 (stereo not drawn),active: 23.1 µM,
COc1ccc(C(=O)C(CCCCC(CN(C)C)C(=O)c2ccc(OC)cc2)CN(C)C)cc1 (stereo not drawn),"inconclusive [cytotoxic, partial curve]",

Compound,Potency,"activity, negative = toxicity"
O=C(NCc1nnc(SCC(=O)N2CCCc3ccccc32)n1-c1ccccc1)c1cccc2ccccc12,,inactive: -28.5%
CN1c2ccccc2C(=O)NC1c1ccc([N+](=O)[O-])s1 (stereo not drawn),,inactive: -16.4%
O=C(/C=C/c1cccc(Br)c1)NC1CCN(Cc2ccccc2)CC1,"inconclusive [cytotoxic, partial curve]",
CNC(=S)N/N=C/c1cc(Br)c(OCc2ccncc2)c(OC)c1,,inactive: 9.68%
CNC(=S)N1N=C(c2cccs2)CC1c1ccc(F)cc1 (stereo not drawn),,inactive: -29.1%
COc1ccccc1-c1c(C)nn2c(N)c(-c3ccc(Cl)cc3)cnc12,,inactive: 12.1%
COc1ccc(-c2ccc(C(=O)NCCN(C)C)c3occc23)c(C)c1,active: 18.4 µM,
CC(C)c1nc(SCC(=O)Nc2nc3c(s2)CCCC3)c2ccccc2n1,active: 11.2 µM,
CCOc1cc(C(=O)N/N=C/C(Br)=C/c2ccccc2)cc(OCC)c1OCC,active: 2.06 µM,
O=C(CCN1CCOCC1)c1ccccc1,"inconclusive [cytotoxic, single point]",
COc1ccccc1OCC(=O)Sc1ccc(C)cc1,"inconclusive [cytotoxic, single point]",
Cc1ccc(NC(=O)Cn2sc3ccccc3c2=O)cc1,"inconclusive [cytotoxic, single point]",
COC(=O)c1sc(-c2ccc(C(C)(C)C)cc2)cc1NC(=O)COCC(=O)O,active: 20.6 µM,
CN1C2C=C(N(CCc3c[nH]c4ccccc34)C(=O)c3ccc(Cl)cc3)CC1CC2 (stereo not drawn),"inconclusive [cytotoxic, partial curve]",
COc1cc(C(O)c2nc(/C=C/c3ccccc3)cs2)ccc1F (stereo not drawn),"inconclusive [cytotoxic, single point]",
Cc1cnc(NC(=O)Cc2ccccc2Cl)s1,,inactive: -6.52%
Cc1onc(-c2ccccc2)c1C(=O)NCC(=O)Nc1cc(Cl)ccc1Cl,,inactive: -10.6%
COc1ccc(-c2coc3c(C(=O)NCc4cccs4)cccc23)c(C)c1,"inconclusive [cytotoxic, partial curve]",
CCN1CCN(CC(=O)Nc2cc(S(=O)(=O)N(CC)c3ccccc3)ccc2Cl)CC1,"inconclusive [cytotoxic, partial curve]",
CC1(C(=O)NCCC(F)(F)F)Cc2c(-c3cccc(C(N)=O)c3)ccnc2O1 (stereo not drawn),"inconclusive [cytotoxic, single point]",
OCC[C@@H]1C[C@@H](O)[C@H](O)[C@@]2(CCCCO2)O1,,inactive: 7.88%
COc1ccc(CCNC(=O)CC(Cc2ccc(C)cc2)C(=O)O)cc1OC (stereo not drawn),,inactive: 7.54%
CCOC(=O)C1=C(N)n2c(s/c(=C\c3ccco3)c2=O)=C(C(=O)OCC)C1c1ccco1 (stereo not drawn),active: 7.94 µM,
